Laboratory results: the supplement of paper PMC3334620
The full ranking holds about 33,000 sequences; the median of “E-score (-0.5 to 0.5)” is about -0.01, and the highest 2% start at about 0.26. The list shows a part of the results.

The sequences below were run against Ste12 (UniProt P13574) (assay: PBM E-score (8-mer binding enrichment) (E-score (-0.5 to 0.5)); higher = stronger / more preferred TF binding; most listed sequences are background and not binding sites). Conditions: protein concentration: 200 nM; construct: GST-DNA-binding domain.
Procedure: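 Universal 'all 10-mer' protein binding microarrays (Agilent AMADID 015681) probed with GST-tagged S. cerevisiae TFs (full-length or DBD) made by in vitro transcription/translation (PURExpress), about 100-200 nM. Bound TF was detected with fluorescent anti-GST. Each ungapped 8-mer (which stands for itself and its reverse complement) is scored by the PBM enrichment score (E-score), a modified Wilcoxon-Mann-Whitney statistic from -0.5 to +0.5, computed with the Universal PBM Analysis Suite. Scale: above 0.35 generally sequence-specific binding.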

| Sequence | PBM E-score |
| --- | --- |
| GCGCGGCC | -0.0611 |
| ACGCCCTG | -0.0344 |
| CATGCGCA | 0.0475 |
| AATGGGCT | -0.092 |
| TGGGGTAA | 0.162 |
| AGCGCTGC | -0.14 |
| CAACACAA | 0.0856 |
| ATAACATG | -0.0746 |
| ACCCAATA | 0.0206 |
| CCCCAAAC | 0.106 |
| ACTCGAAG | -0.205 |
| CCCTCTCA | -0.12 |
| CCCGAGTA | 0.0146 |
| TAATCCAA | 0.201 |
| CTTCCTAA | -0.074 |
| CCGCACTA | 0.0166 |
| CGTGGGAG | -0.158 |
| CCGAACCC | -0.187 |
| ACCCCCAT | -0.266 |
| ATATGTCC | 0.0629 |
| AAAACAGA | 0.295 |
| CGCTCGCA | 0.165 |
| CTTGATAA | -0.0163 |
| GTCAGCAC | -0.117 |
| ACTCTGTC | -0.0521 |

| Sequence | PBM E-score |
| --- | --- |
| GCCACGAA | 0.0318 |
| ATACTTTC | 0.125 |
| GGAACTAA | 0.0142 |
| AGCCAGAT | -0.155 |
| AGGCAAAA | 0.231 |
| ATCACAGA | -0.141 |
| AATTACGC | -0.00082 |
| CTGACGGC | -0.21 |
| CCAATGAG | -0.258 |
| AGCTGTCG | -0.23 |
| ACAAGTTC | -0.00961 |
| TATACAAA | 0.127 |
| GTCGACAA | 0.0095 |
| CCGAAGAG | -0.133 |
| GGGCGTGA | 0.1 |
| GCCGCTTA | 0.0462 |
| ACCGAGAG | 0.00749 |
| AACGGACC | -0.0639 |
| ACGGGAAC | -0.0807 |
| CTAGGCGA | 0.096 |
| GACTTTAC | 0.135 |
| ATTGTTCA | 0.0561 |
| AGAAGGAA | -0.00229 |
| ACGTGTTA | 0.0692 |
| AGCGTTAA | -0.0335 |

| Sequence | PBM E-score |
| --- | --- |
| AGATAGCA | 0.074 |
| CGATTGAA | 0.124 |
| AGGCCACG | -0.0929 |
| TAGCGCGA | 0.0839 |
| CTGTTTGC | -0.0149 |
| CTACATGA | 0.1 |
| CGATAGTA | 0.0487 |
| ACCCGCGT | -0.0297 |
| CATATACC | -0.111 |
| GTTTCGCA | 0.175 |
| GGGGCAGA | -0.0951 |
| TACTATCA | 0.13 |
| ACGCACCA | 0.136 |
| ATCAGAGA | -0.0666 |
| CATTCTAA | -0.123 |
| AATCACTC | -0.114 |
| CCTGCTGC | -0.0239 |
| ACTAAGCA | -0.207 |
| AGGTTTCA | 0.451 |
| GAAGTGTC | -0.0821 |
| ACTGAGTG | -0.0339 |
| AGATCAGA | 0.161 |
| CGTTCTCC | 0.0208 |
| ACCTAAGC | -0.00123 |
| CGGATACC | -0.159 |

| Sequence | PBM E-score |
| --- | --- |
| TGCCACCA | -0.0824 |
| ACGTTAAG | 0.0794 |
| ACTGATAG | 0.0508 |
| AGTAGGAC | -0.213 |
| ATCTAACG | 0.00561 |
| AGAAGCAC | -0.0511 |
| AATCTAGA | -0.13 |
| CGGACCGC | -0.0939 |
| GGTGCTCA | -0.0995 |
| AGAACGAA | 0.196 |
| CGAGCATC | -0.0956 |
| AGCCGTAC | -0.188 |
| GATAAGAA | 0.101 |
| TGAAGACA | -0.0625 |
| CGCGCCGA | 0.2 |
| CCCGGCCA | -0.116 |
| AGCCGACT | -0.139 |
| TCTGGGCA | -0.0341 |
| ACAAACAG | 0.125 |
| TTACGTAA | -0.143 |
| AGCCCTTC | -0.315 |
| CAGCTGCA | -0.17 |
| CAAGTCTC | -0.116 |
| CAACTAAG | -0.127 |
| GCTGCGCC | -0.161 |

| Sequence | PBM E-score |
| --- | --- |
| GAACCAAA | -0.00617 |
| AGCATAAA | 0.142 |
| AGCAGTCG | -0.0751 |
| AAAGGTAT | -0.013 |
| ACCGAAAT | 0.0524 |
| AGCCACCC | -0.17 |
| ACGTCCAC | -0.181 |
| ACGGTAAA | 0.127 |
| ACTCCAAG | 0.0541 |
| TAAAGTGA | 0.251 |
| AGTGGGGC | 0.114 |
| GAAGTGCA | 0.00566 |
| TCACGTCA | 0.0866 |
| TTTGCAAA | 0.214 |
| GTCTAGCA | -0.2 |
| AAGATAAT | 0.147 |
| GCGGTCAA | -0.0277 |
| CCGCGGTC | -0.159 |
| GCCCTAGC | -0.0727 |
| CATATTTA | 0.172 |
| AGATGACG | -0.197 |
| AGAGCGAC | -0.0208 |
| AAAAACGC | 0.0966 |
| CCTATGAG | -0.256 |
| AAGACGTC | -0.00655 |

| Sequence | PBM E-score |
| --- | --- |
| CCCTCGAG | 0.0937 |
| ACCTGCAG | -0.192 |
| AACTGTCA | 0.0126 |
| AGTTGCGA | 0.161 |
| CATCTCGC | -0.0981 |
| AGCTAGTC | -0.133 |
| ACAATGCG | -0.0132 |
| ACAGTGTA | 0.0464 |
| ACCCTTGA | -0.0413 |
| GAGTTGCC | -0.0313 |
| AGCCAGTG | -0.186 |
| ATCCGCCG | -0.0274 |
| AGTTGTTA | 0.0689 |
| AAGCGTGT | -0.102 |
| CGCTATAA | -0.0257 |
| TCGGGTCA | 0.148 |
| ATTACTCA | 0.0131 |
| ACTATGCC | 0.0283 |
| CCAAATGC | -0.104 |
| AGTACTAT | -0.0622 |
| ACAATGTC | 0.134 |
| AAAAGTGG | 0.139 |
| CCCTGCGG | -0.0798 |
| AACACTCT | 0.0333 |
| AGATAAGA | 0.212 |

| Sequence | PBM E-score |
| --- | --- |
| CTTACAGA | 0.019 |
| AGCGCAGC | -0.22 |
| CAATGCAG | -0.0488 |
| CGTGACTA | -0.044 |
| CTAATCGA | 0.0141 |
| AATACCGA | -0.00314 |
| ACTCTGAA | 0.177 |
| CAGTCAAA | -0.031 |
| ACAGGCAC | -0.162 |
| CCCGATGA | 0.0738 |
| TATGGCGA | -0.0577 |
| ATAGAGAA | 0.0568 |
| AAACGCTT | 0.094 |
| TCTTAACA | 0.049 |
| CACTTGAA | 0.12 |
| CGCATAGA | 0.032 |
| CGAGACGC | 0.013 |
| AATACATT | 0.105 |
| AGGAGCAT | -0.107 |
| AGTTAACC | -0.0704 |
| CCCTACTC | 0.026 |
| AATCTACA | -0.0241 |
